Measured values taken from publication PMC12820563.
Some of the results follow. The list includes weakly bound sequences.

molecular target: T1, MBP-FoxP3dN (UniProt Q99JB6); assay: PD-seq (MBP pull-down with sequencing); settings: 20 mM Tris-HCl pH 7.5, 100 mM NaCl, 1.5 mM MgCl2, 0.4 uM protein, 0.1 uM dsDNA library, 30 min, room temperature, amylose pull-down; high values mean tight binding; double strand, one strand shown
T1 sequence: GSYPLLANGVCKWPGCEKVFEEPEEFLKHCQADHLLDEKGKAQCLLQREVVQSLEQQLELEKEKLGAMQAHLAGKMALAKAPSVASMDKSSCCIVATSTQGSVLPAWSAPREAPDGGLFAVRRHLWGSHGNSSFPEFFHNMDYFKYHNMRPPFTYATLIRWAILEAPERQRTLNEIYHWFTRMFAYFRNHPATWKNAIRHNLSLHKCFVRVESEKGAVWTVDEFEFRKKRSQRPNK

Sequence	binding signal (RPM ratio (pull-down/input))
GATGATTGTTCTCCCAGCTGATGAATTTTTATAATCGAGTAAACAAATTTTCCTAATCTTTCTGTTCAAGCGCCATCTAC	0.44
GATGATTGTTCTCCCAGCTGATGAATTCATGTGGTCGAGTAAACAAATTTTCCTAATCTTTCTGTTCAAGCGCCATCTAC	0.694
GATGATTGTTCTCCCAGCTGATGAATTGTACCCATCGAGTAAACAAATTTTCCTAATCTTTCTGTTCAAGCGCCATCTAC	0.472
GATGATTGTTCTCCCAGCTGATGAATTGACGGCATCGAGTAAACAAATTTTCCTAATCTTTCTGTTCAAGCGCCATCTAC	0.813
GATGATTGTTCTCCCAGCTGATGAATTGGGTGGGTCGAGTAAACAAATTTTCCTAATCTTTCTGTTCAAGCGCCATCTAC	0.552
GATGATTGTTCTCCCAGCTGATGAATTCGGGCTCTCGAGTAAACAAATTTTCCTAATCTTTCTGTTCAAGCGCCATCTAC	0.313
GATGATTGTTCTCCCAGCTGATGAATTAGCCCTCTCGAGTAAACAAATTTTCCTAATCTTTCTGTTCAAGCGCCATCTAC	0.33
GATGATTGTTCTCCCAGCTGATGAATTGTAGCCGTCGAGTAAACAAATTTTCCTAATCTTTCTGTTCAAGCGCCATCTAC	0.622
GATGATTGTTCTCCCAGCTGATGAATTAGTATTTTCGAGTAAACAAATTTTCCTAATCTTTCTGTTCAAGCGCCATCTAC	2.03
GATGATTGTTCTCCCAGCTGATGAATTATGATGGTCGAGTAAACAAATTTTCCTAATCTTTCTGTTCAAGCGCCATCTAC	1.33
GATGATTGTTCTCCCAGCTGATGAATTAGTTTGTTCGAGTAAACAAATTTTCCTAATCTTTCTGTTCAAGCGCCATCTAC	6.22
GATGATTGTTCTCCCAGCTGATGAATTAACTTGATCGAGTAAACAAATTTTCCTAATCTTTCTGTTCAAGCGCCATCTAC	0.242
GATGATTGTTCTCCCAGCTGATGAATTAACCTAATCGAGTAAACAAATTTTCCTAATCTTTCTGTTCAAGCGCCATCTAC	0.239
GATGATTGTTCTCCCAGCTGATGAATTACATACGTCGAGTAAACAAATTTTCCTAATCTTTCTGTTCAAGCGCCATCTAC	0.558
GATGATTGTTCTCCCAGCTGATGAATTGACCCTTTCGAGTAAACAAATTTTCCTAATCTTTCTGTTCAAGCGCCATCTAC	0.338
GATGATTGTTCTCCCAGCTGATGAATTGATCCGTTCGAGTAAACAAATTTTCCTAATCTTTCTGTTCAAGCGCCATCTAC	0.278
GATGATTGTTCTCCCAGCTGATGAATTTCCGTTGTCGAGTAAACAAATTTTCCTAATCTTTCTGTTCAAGCGCCATCTAC	0.56
GATGATTGTTCTCCCAGCTGATGAATTCACGGGCTCGAGTAAACAAATTTTCCTAATCTTTCTGTTCAAGCGCCATCTAC	0.213
